The campaign covered roughly 48,000 compounds. About 450 (0.94%) were called active. Inconclusive results (about 19%) are left out. Calls come from the whole dose curve; as a rule, active = well fitted inhibition curve with a large enough effect; inconclusive = small, poorly fitted or top-dose-only effect; inactive = no such curve, though single readings can be large or run the other way. Some of the results follow.
Assay: Primary qHTS for Identification of Small Molecule Inhibitors of Huntingtin Promoter Activity; note: nearly all actives have a fitted effect of over 50% in size
Details: HEK293 HTT promoter firefly luciferase reporter (activity 0% = vehicle and -100% = no light), 24 h; series mostly up to 57.5 µM; activity change, negative = inhibition: at the top concentration
Method in brief: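 HEK293 Fluc reporter, 2,500 cells/well, 24 h pre-culture; cpds up to 57.5 uM final, 24 h 37 degrees C; Dual-Glo, 10 min RT; normalized vehicle = 0%, zero RLU = -100%.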

Activity change, negative = inhibition, inactive:
COc1ccc(C2C=C(c3ccccc3)Nc3nc(NS(=O)(=O)c4ccc(Cl)cc4)nn32)cc1 (centres undefined) -11.6%, COc1ccc(C(=O)Cn2c(=O)c(-c3cc(C)ccc3NC(C)=O)nc3ccccc32)cc1 -20%, CC(=O)c1cc2c(cc1N/C(=N/S(=O)(=O)c1ccc(Br)cc1)c1ccccc1)OCO2 -26.2%, O=C(COc1ccccc1)NC1CC(=O)N(c2ccc3c(c2)OCCO3)C1 (centres undefined) -0.141%, COC(=O)c1ccccc1NC(=O)N1CCc2c(sc3c2CCCC3)C1c1ccc(F)cc1 (centres undefined) -5.68%, Cc1ccccc1Cn1c(CN2CCCC(C)C2)nc2c1c(=O)n(C)c(=O)n2C (centres undefined) -5.34%, Cc1ccc(C)c(N2CCN(C(=O)c3noc4c3CCCCC4)CC2)c1 -27.6%, Cc1cccn2c(=O)c(/C=C(\C#N)c3nc4ccccc4[nH]3)c(Oc3ccc(C(C)(C)C)cc3)nc12 -4.29% [at 11.5 µM], O=C(CCc1nc(-c2cccs2)no1)Nc1cccc([N+](=O)[O-])c1 -5.19%, Cc1ccc(C)c(N2CCN(C(c3ccccc3)c3nnc(-c4ccccc4F)o3)CC2)c1 (centres undefined) -15.8%, Cc1ccc(OCC(=O)OCc2cc(=O)n3nc(-c4cccs4)sc3n2)cc1C 3.51%, Cc1ccc(-c2nc3n(n2)C(=O)CC(c2ccc(Cl)cc2)S3)cc1 (centres undefined) 4.28%, Cc1cc(C)c(NC(=O)Cn2c(=O)n(-c3ccc(CC(=O)NCC4CCCO4)cc3)c(=O)c3ccccc32)c(C)c1 (centres undefined) -2.44%, O=C(NCc1ccc(F)cc1)c1cc2n(n1)CCCN(Cc1ccc(F)cc1)C2=O 31.9%, Cc1ccc(C(=O)Nc2sc3c(c2C(=O)NCc2ccco2)CCC(C(C)(C)C)C3)cc1 (centres undefined) -1.09%, CCOc1ccc(Sc2cc(C(=O)NC(C)c3ccccc3)c3ccccc3n2)cc1 (centres undefined) -27.6%, Cc1ccsc1CN(C(=O)COc1ccc(Br)cc1)C1CCS(=O)(=O)C1 (centres undefined) -29.2%, Cc1ccc(OCC(=O)Nc2cc3nn(-c4ccccc4)nc3cc2C)cc1 43.9%, Cc1c[nH]c(C=C2C(=O)Nc3ccccc32)c1CCC(=O)O 3.58%, Cc1ccc(C(=O)Nc2ccc(NC(=O)c3cccs3)cc2)cc1C -6.33%, Cc1cc(Cl)ccc1NC(=O)C(=O)NCc1ccco1 -17.2% [at 11.5 µM], COc1ccc(NC(=O)Cn2c(SCc3cc(C)ccc3C)nc3ccncc32)c(OC)c1OC -15.6%, COc1ccc2c(CNCc3cccs3)c(C(=O)O)n(Cc3ccccc3)c2c1 -12.2%, O=C(Cn1c(=O)c2cccn2c2ccccc21)NCCc1ccccc1 -3.67%, CCOc1ccccc1NC(=O)Cn1cc(C(=O)c2cccc(OC)c2)c(=O)c2ccc(C)nc21 -17.6%, COc1cc(NC(=O)CN(c2ccc(C)cc2)S(=O)(=O)c2cccc3nonc23)cc(OC)c1 -13.6%, Cc1ccc2nc(NC(=O)COc3ccc(F)cc3)sc2c1 9.56%, CCOc1ccccc1C(=O)Nc1ccc(S(=O)(=O)Nc2nc(C)cc(C)n2)cc1 2.44%, O=C(CSc1nnc(CNC(=O)c2cccc(F)c2)n1-c1ccccc1)Nc1ccccc1F -14.4%, Cc1ccc(NC(=O)Cn2cnc3sc(C(=O)O)c(C)c3c2=O)cc1Cl -4.02%, CCN1CCN(c2nc3c(S(=O)(=O)c4ccc(Br)cc4)nnn3c3ccsc23)CC1 -2.82%, CN[C@@H](C)C(=O)N[C@H]1CN(C(=O)CC(C)C)CC[C@H]2CC[C@@H](C(=O)NC(c3ccccc3)c3ccccc3)N2C1=O -18.5%, CCOc1ccc(-c2nonc2NC(=O)COc2c(C)cc(C)cc2C)cc1OCC -3.29%, CCCCCn1c(C(C)NC(=O)c2ccccc2)nc2ccccc21 (centres undefined) -15.8%, COc1ccc2c(c1)c1c(c(=O)n(Cc3ccccc3)c(=O)n1CC(=O)NCc1ccccc1Cl)n2C -3.69%, CCOc1cc(CNC(=O)C2COc3ccccc3C2)cc(OCC)c1OCC (centres undefined) -22.8%, COc1ccc(CNC(=O)CCn2cccn2)cc1 -6.81%, COc1ccc(CCn2cc3c(c2-c2ccc(Br)cc2)c(=O)n(C)c(=O)n3C)cc1OC -7.87%, Cc1ccc(C(C)C)c(OCC(=O)NCC2(N(C)C)CCCCC2)c1 -20.6%, Cc1ccccc1C(=O)n1nc(-c2ccco2)nc1NCc1ccc(Cl)cc1 3.56%, COc1ccc(OC(=O)N(CC(=O)O)Cc2ccc(OCCc3nc(-c4ccccc4)oc3C)cc2)cc1 -5.6%, COc1ccc(-c2nc(C)c(CCNC(=O)C(=O)Nc3ccccc3OC)s2)cc1 -3.35%, Cc1ccc(-c2nnc(SCc3ccccc3C)o2)cc1 62.4%, CCc1ccc(C(=O)c2cn(CC(=O)Nc3ccc4c(c3)OCO4)c3cc(OC)c(OC)cc3c2=O)cc1 -13.9%, O=C(COc1ccc(Cl)cc1)Nc1ccc(-c2nc3ccccc3s2)c(O)c1 -23.8%, COc1cc(-c2cc(OC)c3c(C)oc(C)c3c(=O)c2)ccc1OC(=O)c1ccccc1Cl -16.1%, COc1cc(Cl)c(NC(=O)CCS(=O)(=O)c2cc3c(cc2Cl)NC(=O)CO3)c(OC)c1 20.6%, Cc1cc(C)c2c(=O)cc(CSCC(=O)Nc3ccccc3Cl)[nH]c2c1 -2.52%, Cc1ccc(-c2cc3ncc4c(n3n2)-c2cc(C)ccc2OC4)cc1 -13.1%, Cc1cccc(Oc2nc3c(C)cccn3c(=O)c2/C=C(\C#N)c2nc3ccccc3[nH]2)c1 -19.3%, Cc1ccc2nc(N3CCN(c4cccc(Cl)c4)CC3)c(-n3nc(C)cc3C)nc2c1 -6.24%, CCOC(=O)C1=C(CN2CCC(C)CC2)NC(=O)NC1c1ccc(F)cc1 (centres undefined) -5.57%, Cc1ccc(N2C(=O)CSC23C(=O)N(CC(=O)NCc2ccccc2)c2ccccc23)cc1C (centres undefined) -16.2%, Cc1cccc(C)c1OCC(=O)NCC1(N(C)C)CCCCC1 -26.1%, CNC(=O)c1c(NC(=O)c2ccc(S(=O)(=O)N3CCC(C)CC3)cc2)sc2c1CCC2 -0.907%, COc1ccccc1CNC(=O)C1CCC(CNS(=O)(=O)c2ccc3c(c2)CCCC(=O)N3)CC1 (centres undefined) -15.6%, COc1ccc(CNC(=O)c2ccc(N3CCCC3)c(NC(=O)NCc3ccc(F)cc3)c2)cc1 -28.4%, CCN(CC)CCNC(=O)c1ccc(Cn2c(SCc3ccccc3)nc3cccnc32)cc1 38.5%, Cc1ccc2c(Sc3ccc(Cl)cc3)c(C(=O)N3CCC(C)CC3)[nH]c2c1 -27.6%
